According to article PMC12136788:
This is one part of the list.

B1: 56161274_56161766_1203_CDS_ENSG00000095015_ENST00000399503|human|control|control (ssRNA)
RNA: GGGAGUUCUACAGUCCGACGAUCCAAUGUAUGAGAAUUUGACAUGCGUGAAACAAACUUCUGGAUGGUGUUACGAGAUGGAGCUUUGAUCCUUGAGCUACGCCUACUGUGAUAUUUCUGGAACAAACUCUCAACCUCAAAAUUCAACAGAGGAUUGAGCAUCA
B2: chr1:39494564:39494565:+_ENSG00000168653_ENST00000372967|hu_hu|hu_hu_hu_mus_True|1_28 (ssRNA)
RNA: GGGAGUUCUACAGUCCGACGAUCAUGCAUUCGCCUCAUCGUUUUGUACCGAAGCAAGCACUCUUCGAAGUCAUCGAACUCUAUCUUGCACUCCUUUUUCGCCCGGGUAUAACCGAUCCCGUGUGCACACUCUAUCCAUUCUUUCAACAGAGGAUUGAGCAUCA
B3: 98507940_98508150_816_CDS_ENSG00000196367_ENST00000456197|human|control|control (ssRNA)
RNA: GGGAGUUCUACAGUCCGACGAUCUGGGAAUGAACUGAGCUUCACCAGGUGCUUUGCAUGAUGUUAUGCCCCACGUGAUUGUCUUGACACCACACACCAAGGUUUUGACCAAACUUCGACAGUCUGUGACUUGGAAUGUCUGCUCAACAGAGGAUUGAGCAUCA
B4: 118633944_118635965_963_CDS_ENSG00000110367_ENST00000264018|human|control|control (ssRNA)
RNA: GGGAGUUCUACAGUCCGACGAUCAUGAUCAACCUUUGCUACUCCUUUCUUAAUAAGAUCCAGGAUUCUCCCAGGGGUAGCAAUCACCACGUGCACUGUAUCAUCAAGCCUCAUUAUGUCAUCUCGUAAAUUGGUUCCUCCUGUCAACAGAGGAUUGAGCAUCA
B5: 53051169_53051289_108_3pUTR_ENSMUSG00000026960_ENSMUST00000028336|mouse|control|control (ssRNA)
RNA: GGGAGUUCUACAGUCCGACGAUCCUUCGUCGCCUUCGCCCUCACCCCAGCUGUCCCCCUGAGUGUAGUCGGAAUACCCGGGCCGAGUCGCAGGGCCUGGGGUAACCUGACGGCGCCUCCGCGCGCCCGCAAACCUCCAACUCUCAACAGAGGAUUGAGCAUCA
B6: chrX:140365796:140365797:-_ENSMUSG00000031285_ENSMUST00000033642|mus_mus|mus_mus_mus_hu_False|1_8 (ssRNA)
RNA: GGGAGUUCUACAGUCCGACGAUCCUUCUCAUUACUCAGUGCCUGCAAGGUUCUGGUUCGGUAGAAGCUACAGUGGGCGCUGUGAGUGGGGCUAGGCAACCCAUUCAUCCGGGAGCCUCGCAUGUUCCUAGAUGCUUUGUCUCGCAACAGAGGAUUGAGCAUCA
B7: chr6:42975684:42975685:+_ENSG00000112640_ENST00000485511|hu_hu|FALSE|FALSE (ssRNA)
RNA: GGGAGUUCUACAGUCCGACGAUCACUGUCAAAUAGGUCUAGGAGAGCAAGUACAAACUUCUGGUCGAUGUACUUCUUGGCUAUGUUUGGCUGGAAAUCAGGAGACUCAAGGAAACGUAAGAAGAACUCAUACACGAGCUGGAGCAACAGAGGAUUGAGCAUCA
B8: chr2:148693158:148693159:-_ENSG00000115947_ENST00000542387|hu_hu|FALSE|FALSE (ssRNA)
RNA: GGGAGUUCUACAGUCCGACGAUCUGCCCACUGCCUCACAUCUGUAGGACAGUUGGGAUAUUUCUGCAGAGCAUUCAUAAUUUGAGUAUUAUCCAAAAGCAGUUUCAUCAGCUGGUACUCUCUCUGUGAAUUUCCUGAAGUUCUCAACAGAGGAUUGAGCAUCA
B9: chr7:7679991:7679992:-_ENSG00000106399_ENST00000396682|hu_hu|hu_hu_hu_mus_False|1_98 (ssRNA)
RNA: GGGAGUUCUACAGUCCGACGAUCUGGGAUGAAUCUUUUCCAGCCUCCCCACGAAGCACACGGGCCGGUCGAUAUACUGUGGUAACAUGCUGGCGUUGACGCGCGCUUUGGGGAGCUGCAUUAUGUCCUCCAUGAUUAUGGUCCCAACAGAGGAUUGAGCAUCA
B10: chr18:60570258:60570259:+_ENSG00000081913_ENST00000262719|hu_hu|motif|central (ssRNA)
RNA: GGGAGUUCUACAGUCCGACGAUCCUUAUUGUCUCGUAGGUCAAGCUGAGUAACAUGCUGUAGAAAGUCCACUUCAUCUGCGGUCAGCUUCCUAAUUACGUUCAACCUUAGAUCCACAUGUUUAAUGUGAGGCAUUUUUCUUAACAACAGAGGAUUGAGCAUCA
B11: chr3:10015032:10015033:+_ENSMUSG00000027533_ENSMUST00000029046|mus_mus|mus_mus_mus_hu_True|18_18 (ssRNA)
RNA: GGGAGUUCUACAGUCCGACGAUCGUUUUUACCAUCACAAGUGAUGAUACAAUCUGGCUUGGCCAUUGCGCCCAUUUUUCGCAAAGCUAUUCCCACUCCUAGCUCCUUCAUGUAUUCCUCAAAGCCGUUGCUGUCCACCAGGCGCAACAGAGGAUUGAGCAUCA
B12: chr12:42180722:42180723:-_ENSMUSG00000036295_ENSMUST00000043884|mus_mus|FALSE|FALSE (ssRNA)
RNA: GGGAGUUCUACAGUCCGACGAUCCUGUAGGAGCAGAAUCUGUGUGUCGGCAGGCAAUCUGGCUGGGAAGUUUAAAAGCCCUAAAUCAUUACAGUCCACUGUCGAUGCUUCCAUAUAGAUGGAUCUCGGGGUAAACCAAGGCCUCAACAGAGGAUUGAGCAUCA
B13: chr1:173932209:173932210:-_ENSMUSG00000026556_ENSMUST00000027837|mus_mus|FALSE|FALSE (ssRNA)
RNA: GGGAGUUCUACAGUCCGACGAUCACAACUUCCCAUUCUGGAGAAGCAAAAGACACACACACACACACACACACACACACACACACACACACACACACCUCGCACACACAGAGCCAUACAUUUGACAAUUCAUCCUGACAUCUUCAACAGAGGAUUGAGCAUCA
B14: chr8:95500983:95500984:-_ENSG00000164944_ENST00000437199|hu_hu|hu_hu_hu_mus_True|38_78 (ssRNA)
RNA: GGGAGUUCUACAGUCCGACGAUCAGAACACAUCUAUCGAGUAAAGGACCGUACAUGGACGACCUCUCCACUGCCUCCACUAACAAACUUUCCUCUCUGAGCCUCCAUGCCGCUAUUUGUACUAGCCCAGGACGGUCCCAGGCCCAACAGAGGAUUGAGCAUCA
B15: chr4:124323543:124323544:+_ENSG00000164056_ENST00000339241|hu_hu|FALSE|FALSE (ssRNA)
RNA: GGGAGUUCUACAGUCCGACGAUCCCUCCUGCACAGCUUCAGGCAUCCUUUAGCAGGAGGAUAACAGAGUAAGCAAGGUAAAAAUAAAGACAUGGCUCCCAUACACAGGUAUCUAGAGCAGCAGUGUGAUUGUGAACAGGAGCACAACAGAGGAUUGAGCAUCA
B16: chr15:85259290:85259291:-_ENSG00000140612_ENST00000559729|hu_hu|FALSE|FALSE (ssRNA)
RNA: GGGAGUUCUACAGUCCGACGAUCAUUUAGGACUUGAUAAUAGAGCUGCCGCUUGUUCAUCCGCCGCACAUCGUCCAAAAAGUCUAGAGACAGCAUGGCGGGGACGGCGAGCAGGACACCGGCAGGGGAAAGGGCGCGAUGACCCAACAGAGGAUUGAGCAUCA
B17: chr12:48459454:48459455:-_ENSG00000079387_ENST00000551330|hu_hu|FALSE|FALSE (ssRNA)
RNA: GGGAGUUCUACAGUCCGACGAUCUGCCUUCUGUUCUUCAAUCUGGCGCAAUCUUUCUCGUGCUCGAGAAUCAUAAACACUAGUUAAUUCUUUGAUCCACAGCUCUGCCUGGAAGAAAGUAGAACUGGGAGUUGGAGUCUGGGACAACAGAGGAUUGAGCAUCA
B18: chr2:150438701:150438702:-_ENSG00000168288_ENST00000303319|hu_hu|motif|central (ssRNA)
RNA: GGGAGUUCUACAGUCCGACGAUCAUCCGAACCUGAUGAUCCUGCAGUCGAAAAGGCUUUGGGAUUGACAACCCUUUUAACGGAAGAGCAAAAUCCUGGGAGAUAGGAAACCAGUCUGGCUCUGUUACAAAGCACAUUGGCCAUCAACAGAGGAUUGAGCAUCA
B19: chr3:101378695:101378696:-_ENSG00000066422_ENST00000312938|hu_mus|FALSE|FALSE (ssRNA)
RNA: GGGAGUUCUACAGUCCGACGAUCCGGCUUUACACCCGUGUGCUUUAGCAUAUGUAUGCGGAGAGAGUAUAAUUUAGGUAAUGUCCUUCCACAUAUAGAACAUAUAAAUUCUCUUUUGGUUCUUCCCUUCUCAGAUGAUCCUCCCAACAGAGGAUUGAGCAUCA
B20: chrX:17818885:17818886:+_ENSMUSG00000037369_ENSMUST00000044484|mus_hu|FALSE|FALSE (ssRNA)
RNA: GGGAGUUCUACAGUCCGACGAUCAUACCAGGACUGGCCAGAAUUAGGAUCUGCUUCCAAGGACUUUUGGAGAUACUGAAUAGCAUAGCUUUCCUUGGUGGCUUUAUCUCCCAGGAGAUCUACAGUGUGAUGCAUCCAACCUAACAACAGAGGAUUGAGCAUCA
B21: chr10:17279496:17279497:+_ENSG00000026025_ENST00000224237|hu_mus|FALSE|FALSE (ssRNA)
RNA: GGGAGUUCUACAGUCCGACGAUCUUUAAUGGUAUUCAAAAAUACUUUAAAAAGUAUUCUAGCACAAGAUUUCUUCGUAAACUAGAUUAUUUUGUAAACCUUUUCUACGUCUUUUGGGGUGUCAGUUGUUAAGUGCUGAGCUUCCAACAGAGGAUUGAGCAUCA
B22: 65116393_65119264_1212_3pUTR_ENSG00000133884_ENST00000252268|human|control|control (ssRNA)
RNA: GGGAGUUCUACAGUCCGACGAUCCUUAGAUAUGUCGGGGAGCAGGUGGGUGGCCACAUCAAGAGGAGUUCUGGUUCUGGUAGAUGGAAGCUUUCUCUUUCAACAGGUCCAGACACAGGUGGCAGCUCCAACUUCCUUCAGGGGCAACAGAGGAUUGAGCAUCA

Biological target: T1, UNK ZnF1-3 (human, UniProt Q9C0B0 31-174)
T1 sequence: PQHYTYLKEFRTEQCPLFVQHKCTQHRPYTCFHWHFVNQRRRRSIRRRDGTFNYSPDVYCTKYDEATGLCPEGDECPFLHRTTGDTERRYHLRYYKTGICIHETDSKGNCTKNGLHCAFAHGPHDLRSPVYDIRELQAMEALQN
Test: nsRBNS (natural sequence RNA bind-n-seq); RBNS binding buffer (assumed for nsRBNS): 25 mM Tris pH 7.5, 150 mM KCl, 3 mM MgCl2, 0.01% Triton X-100, 500 ug/ml BSA, 20 U/ml SUPERase-In, 4 C; UNK is unkempt and MSI1 is Musashi-1; names of the RNAs are library labels; protein concentration not given here; high values mean tight binding

Row | Binder | binding signal [enrichment R]
1 | B1 | 1.28
2 | B2 | 0.59
3 | B3 | 0.827
4 | B4 | 0.941
5 | B5 | 0.825
6 | B6 | 0.461
7 | B7 | 1.79
8 | B8 | 0.902
9 | B9 | 0.525
10 | B10 | 0.864
11 | B11 | 0.718
12 | B12 | 1.2
13 | B13 | 1.68
14 | B14 | 1.35
15 | B15 | 1.89
16 | B16 | 0.749
17 | B17 | 0.775
18 | B18 | 1.1
19 | B19 | 0.592
20 | B20 | 1.05
21 | B21 | 0.417
22 | B22 | 1.62
